# Read counts after selection give these values, which scatter widely.
# Test system: NB7
# Test: fold depletion of shRNA, plasmid library share / infected cells without Dox share (9 days) (ratio); higher = more depleted after infection (more toxic, leaky expression from a Tet-inducible vector; NB7 is a neuroblastoma line without caspase-8)
# Details: shRNA pool: CD95L ORF + CD95L 3'UTR + Venus libraries
# Description: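 Pooled lethality screen in NB7 neuroblastoma cells infected with Dox-inducible pTIP shRNA libraries. The libraries tile every 21-mer of the Venus, CD95L or CD95 ORF / 3'UTR; each hairpin is the 21-nt sense sequence + CTCGAG loop + antisense. Cells were cultured 9 days with or without 100 ng/ml Dox. shRNA representation was measured by deep sequencing of the genomic inserts, normalised to the total reads per subpool and averaged over technical replicates. Fold depletion is the plasmid library share / infected cells without Dox share (mean of 2 biological replicates), and the -Dox/+Dox share ratio is the mean of 4 replicate pairings; higher values mean more depletion (toxicity).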
# 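Also: shRNA barcodes quantified by deep sequencing of PCR amplicons from cellular DNA, counts expressed as percent of each subpool, ratio averaged over two biological duplicates.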
row,Sequence,fold depletion of shRNA
1,AAAAAAAGGAGCTGAGGAAAG,5.32
2,AAAAAGCAGCTACCAGGTGTT,1.26
3,AAAAAGTATATGTTAGGATAC,0.721
4,AAAAATCATTGATTGTCAGCT,2.42
5,AAAACATGTAATAAAAAGTAT,0.875
6,AAAAGCAGCTACCAGGTGTTC,1.54
7,AAAAGGAAGACTAGAGGCTTG,1.05
8,AAAAGGACACCTTTTAACTCA,1.7
9,AAAAGGAGCTGAGGAAAGTGG,0.336
10,AAAATCATTGATTGTCAGCTA,1.31
11,AAAATGTCTGTAGCTCCTCAA,2.48
12,AAACATGTAATAAAAAGTATA,0.626
13,AAACGGCCACAAGTTCAGCGT,0.927
14,AAACTAACAGATAAGCAAGAG,0.899
15,AAACTGGGCTGTACTTTGTAT,0.835
16,AAAGACCCCAACGAGAAGCGC,0.609
17,AAAGAGAGAATGTAGATATTG,1.04
18,AAAGAGGCCAATGCCCCACTG,1.37
19,AAAGAGGCTGAAAGAGGCCAA,1.38

row,Sequence,fold depletion of shRNA
1,AAAGCAGCTACCAGGTGTTCT,0.73
2,AAAGGAAGACTAGAGGCTTGC,1.25
3,AAAGGACACCTTTTAACTCAC,0.888
4,AAATATGGGTTGCATTTGGTC,1.36
5,AAATATTTATGTAGATGTGCA,0.961
6,AAATCATTGATTGTCAGCTAC,0.699
7,AAATGAAAACATGTAATAAAA,0.488
8,AAATGCATATCCTGAGCCATC,1.01
9,AAATGGAGGAATATGACGGAA,1.72
10,AAATGTCTGTAGCTCCTCAAC,18.9
11,AACAACCTGCCCCTGAGCCAC,0.203
12,AACACAGCATGTGTATTTCCA,1.37
13,AACACCCCCATCGGCGACGGC,3.83
14,AACAGATAAGCAAGAGAGATG,0.583
15,AACAGGCAAGTCCAACTCAAG,0.529
16,AACATAGAACTCTGGGCTGCC,4.42
17,AACATCCTGGGGCACAAGCTG,1.7
18,AACATCGAGGACGGCGGCGTG,2.24
19,AACATGTAATAAAAAGTATAT,0.876

# Same assay, conditions: shRNA pool: CD95 ORF + CD95 3'UTR + Venus libraries
row,Sequence,fold depletion of shRNA
1,AAAAAAGCCAATCTTTGTACT,1.02
2,AAAAAATACTTAATAGTCCAC,2.44
3,AAAAACAACAAATTCAGTTCT,1.53
4,AAAAAGCCAATCTTTGTACTC,1.01
5,AAAAATACTTAATAGTCCACC,1.29
6,AAAACAAACTTCATCAAGAGT,1.4
7,AAAACAACAAATTCAGTTCTG,1.12
8,AAAACATGCAGAAAGCACAGA,1.11
9,AAAACATTAAATTATAATGTT,0.722
10,AAAACCAAGGTTCTCATGAAT,0.961
11,AAAACCTGCTACAAATGGCAG,1.01
12,AAAACTACCTACTTCTTTCTC,1.76
13,AAAAGATTCTTAATAGCTGGC,1.66
14,AAAAGCATTTTGAGCAGGAGA,1.68
15,AAAAGCCAATCTTTGTACTCT,1.21
16,AAAAGGCAAGACTGCCCTTAG,2.28
17,AAAAGTACGTAATTAAATAAT,0.917
18,AAAAGTGTTAATGCCCAAGTG,2.02
19,AAAATACTTAATAGTCCACCA,1.02
20,AAAATAGATGAGATCAAGAAT,1.14
21,AAAATAGATTCTTATTTTTCC,0.897
22,AAAATATAGGTAAAAGTACGT,2.06
23,AAAATCATCATCTGGATTTAG,1.47
24,AAAATCTAGTTGGGAAAACAA,2.14

row,Sequence,fold depletion of shRNA
1,AAAATGTTCAATAATGTCCCA,0.834
2,AAAATTCAAACTTCAGAAATG,0.99
3,AAAATTCAGACTATCATCCTC,1.03
4,AAACAAACTTCATCAAGAGTA,0.967
5,AAACAACAAATTCAGTTCTGA,2.19
6,AAACAGTGGCAATAAATTTAT,0.833
7,AAACATGCAGAAAGCACAGAA,2.03
8,AAACATGGAAATATCACCAAA,0.912
9,AAACATTAAATTATAATGTTT,0.796
10,AAACCAAACTTTTTTTGTAAC,1.23
11,AAACCAAGGTTCTCATGAATC,0.981
12,AAACCTGCTACAAATGGCAGC,1.05
13,AAACGGCCACAAGTTCAGCGT,3.48
14,AAACTACCTACTTCTTTCTCA,0.982
15,AAACTGAAGCAGATACCTGGA,0.823
16,AAACTGCACCCGGACCCAGAA,1.04
17,AAACTGTGAAGATAGTTATAA,0.758
18,AAACTTCAGAAATGAAATCCA,1.33
19,AAACTTCATCAAGAGTAAATG,1.14
20,AAACTTTGTTTATAACTCTGA,0.921
21,AAACTTTTTTTGTAACTCTAC,0.619
22,AAAGAACTTCCATTTATGGAG,1.33
23,AAAGAATGGTGTCAATGAAGC,0.666
24,AAAGACCCCAACGAGAAGCGC,0.78

row,Sequence,fold depletion of shRNA
1,AAAGACCTTTGCACAGTTTAT,4.03
2,AAAGATCTCAAAAAAGCCAAT,1.72
3,AAAGATGATAAAATAGATTCT,0.953
4,AAAGATTAAGATTATGCTCTG,1.19
5,AAAGATTCTTAATAGCTGGCT,1.37
6,AAAGCACAGAAAGGAAAACCA,1.39
7,AAAGCATTTTGAGCAGGAGAG,1.12
8,AAAGCCAATCTTTGTACTCTT,0.939
9,AAAGCCCATTTTTCTTCCAAA,3.03
10,AAAGCTAGGGACTGCACAGTC,0.568
11,AAAGGAAAACCAAGGTTCTCA,1.21
12,AAAGGAAGTACAGAAAACATG,0.993
13,AAAGGCAAGACTGCCCTTAGA,6.08
14,AAAGGCTTTGTTCGAAAGAAT,1.68
15,AAAGTACGTAATTAAATAATG,0.803
16,AAAGTAGCTTTGTGACATGTC,0.718
17,AAAGTATATGTATTTGAGTGC,2.38
18,AAAGTGTTAATGCCCAAGTGA,4.71
19,AAAGTTCAACTGCTTCGTAAT,2.36
20,AAAGTTTGTATTAAATGTGAA,0.872
21,AAATAAGGCTCTACCTCAAAG,1.13
22,AAATAATATTTATATTTCTGT,0.913
23,AAATACTGCTTGGTTTTTTAC,2.32
24,AAATACTTAATAGTCCACCAA,1.03

row,Sequence,fold depletion of shRNA
1,AAATAGATGAGATCAAGAATG,1.15
2,AAATAGATTCTTATTTTTCCC,1.14
3,AAATAGGAGTGTATGCAGAGG,2.88
4,AAATATAGGTAAAAGTACGTA,1.51
5,AAATATATCACCACTATTGCT,1.57
6,AAATATCACCAAAAAATACTT,1.11
7,AAATATCAGTTACTGAACAGG,1.82
8,AAATATCTTTGAAAGTTTGTA,0.922
9,AAATCCTGAAACAGTGGCAAT,4.67
10,AAATCTAGTTGGGAAAACAAA,1.99
11,AAATGAAATCCAAAGCTTGGT,2.81
12,AAATGCAGAAGATGTAGATTG,0.976
13,AAATGGCAGCTTATACATAGC,0.47
14,AAATGTAAACTGTGAAGATAG,1.5
15,AAATGTCTATCCACAGGCTAA,1.49
16,AAATGTGAACATGGAATCATC,3.94
17,AAATGTGAATTTTAAGAAATA,0.679
18,AAATGTTCAATAATGTCCCAT,1.09
19,AAATTACCTCTGATAATTCTA,1.07
20,AAATTATAATGTTTGACTATT,0.869
21,AAATTCAAACTTCAGAAATGA,1.25
22,AAATTCAGACTATCATCCTCA,0.85
23,AAATTCAGTTCTGAGTATATG,2.18
24,AAATTTATCTGATGTTGACTT,0.834

row,Sequence,fold depletion of shRNA
1,AACAAACTTCATCAAGAGTAA,0.627
2,AACAAATTCAGTTCTGAGTAT,0.98
3,AACAACAAATTCAGTTCTGAG,1.19
4,AACACCAAGTGCAAAGAGGAA,1.93
5,AACACCCCCATCGGCGACGGC,2.53
6,AACACTGTGACCCTTGCACCA,2.54
7,AACAGAAAGTTCAACTGCTTC,1.26
8,AACAGCCACAACGTCTATATC,6.05
9,AACAGGCAGGCCACTTTGCCT,1.95
10,AACAGTGGCAATAAATTTATC,0.974
11,AACATATGATTCTGTAGTATG,1.48
12,AACATATTTGTAGATTTTTAA,0.9
13,AACATCCTGGGGCACAAGCTG,1.76
14,AACATCGAGGACGGCGGCGTG,0.9
15,AACATGCAGAAAGCACAGAAA,1.52
16,AACATGGAAATATCACCAAAA,1.01
17,AACATGGAATCATCAAGGAAT,1.28
18,AACATTAAATTATAATGTTTG,0.732
19,AACCAAACTTTTTTTGTAACT,1.1
20,AACCAAGGTTCTCATGAATCT,1.22

# Reference: the supplement of paper PMC5655136
